According to patent publication US20260116960A1 (SHANGHAI HONGCHENG BIOPHARMACEUTICAL, published 2026):

T1: human VEGF165-his protein (Acro, Catalog No. VE5-H5248) (human, UniProt P15692-4 27-191)
T1 construct: Bought protein; also called hVEGF165-His; VEGFA; not shown: his tag
T1 sequence (looked up): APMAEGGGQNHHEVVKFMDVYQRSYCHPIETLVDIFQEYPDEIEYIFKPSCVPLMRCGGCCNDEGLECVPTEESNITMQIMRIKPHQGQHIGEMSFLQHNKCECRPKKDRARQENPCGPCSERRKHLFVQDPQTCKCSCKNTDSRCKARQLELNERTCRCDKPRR


Legend:
[1] = biological target: T2, human PD-1 on the cell surface (human, UniProt Q15116 25-288); assay: flow cytometry, 293T-hPD-1 cells, batch FACS#2
T2 construct: whole, on cells; also called cell surface PD-1
Procedure: After centrifugation at 300 g for 5 minutes, the supernatant was discarded. The antibodies were serially diluted 3-fold with FACS buffer to obtain two gradient series solution FACS #1 and FACS #2, with the starting concentration of 200 nM (Table 5, FACS #1) or 100 nM (Table 5, FACS #2, FIG. 2), respectively. Then 100 μL/well was added to a 96-well plate in triplicate, mixed, and incubated at 4° C. for 60 min. The plate was centrifuged and washed three times with FACS buffer. 100 μL/well of 1:800 diluted AF647-anti-hIgG(H+L) (Jackson, Catalog No.: 109-605-003) was added and incubated at 4° C. for 50 minutes. After washing the plate three times with FACS buffer, 100 μL/well of FACS buffer was added to resuspend the cells, and the fluorescence signal was detected on a flow cytometer (BECKMAN COULTER cytoFLEX). The binding activity was fitted using a four-parameter model to calculate the EC₅₀ value of each antibody binding to PD-1.

[2] = biological target: T3, human CTLA-4 on the cell surface (human, UniProt P16410 36-223); assay: flow cytometry, CHO-hCTLA-4 cells, batch FACS#4
T3 construct: whole, on cells; also called CHO-hCTLA-4 cells; CHOK1-hCTLA4 cells

[3] = biological target: T1, human VEGF165-his protein (Acro, …); assay: competitive ELISA, VEGF165-His coated, biotin-human KDR
[4] = biological target: T2, human PD-1 on the cell surface; assay: flow cytometry competition, 293T-hPD-1 cells, biotin-human PD-L1
T2 sequence (Q15116 25-288): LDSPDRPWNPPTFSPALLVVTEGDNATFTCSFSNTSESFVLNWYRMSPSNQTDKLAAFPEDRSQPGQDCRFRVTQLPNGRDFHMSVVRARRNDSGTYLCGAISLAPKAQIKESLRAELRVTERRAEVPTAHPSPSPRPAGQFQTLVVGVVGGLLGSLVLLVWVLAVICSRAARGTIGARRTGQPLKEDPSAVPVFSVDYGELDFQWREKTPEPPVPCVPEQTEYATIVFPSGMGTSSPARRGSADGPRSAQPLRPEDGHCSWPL
Procedure: 50 μL of antibody solution serially diluted 3-fold in FACS buffer was added in triplicate, with a starting concentration of 200 nM. After mixing, incubated at 4° C. for 60 minutes. After washing three times with FACS buffer, 100 μL/well of 1:800 diluted PE Streptavidin was added and incubated at 4° C. for 50 min. After washing three times with FACS buffer, 150 μL/well of PBS was added to resuspend the cells, and the fluorescence signal was detected on a flow cytometer (BECKMAN COULTER cytoFLEX). The four-parameter model was used to fit the binding activity and the IC₅₀ value of the blocking activity of each antibody was calculated.

[5] = biological target: T3, human CTLA-4 on the cell surface; assay: flow cytometry competition, CHO-hCTLA-4 cells, biotin-human CD80
T3 sequence (P16410 36-223): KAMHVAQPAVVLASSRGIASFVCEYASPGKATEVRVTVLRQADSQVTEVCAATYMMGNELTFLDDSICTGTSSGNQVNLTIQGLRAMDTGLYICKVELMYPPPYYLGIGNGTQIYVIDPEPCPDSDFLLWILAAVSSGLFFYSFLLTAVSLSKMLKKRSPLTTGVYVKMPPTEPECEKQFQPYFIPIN
Procedure: CHO-hCTLA-4 cells were obtained by trypsin digestion, washed twice with PBS containing 2% FBS (FACS buffer), and resuspended in FACS buffer. 200 μL of the cells were added to a 96-well U-bottom plate, approximately 2×10⁵ cells/well. After centrifugation at 300 g for 5 minutes, the supernatant was discarded. […] After washing three times with FACS buffer, 100 μL/well of 1:800 diluted PE Streptavidin was added and incubated at 4° C. for 50 min. After washing three times with FACS buffer, 150 μL/well of PBS was added to resuspend the cells, and the fluorescence signal was detected on a flow cytometer (BECKMAN COULTER cytoFLEX). The four-parameter model was used to fit the binding activity and the IC₅₀ value of the blocking activity of each antibody was calculated.

[6] = biological target: T3, human CTLA-4 on the cell surface; assay: flow cytometry competition, 293T-hPD-1-hCTLA-4 cells (PD-1 co-expressed), biotin-human CD80
Procedure: PD-1 and CTLA-4 are co-expressed on functionally exhausted T cells in the tumor microenvironment, and the expression level of PD-1 is higher than that of CTLA-4. […] 200 μL of the cells were added to a 96-well U-bottom plate, approximately 1.4×10⁵ cells/well. After centrifugation at 300 g for 5 minutes, the supernatant was discarded. […] After washing three times with FACS buffer, 100 μL/well of 1:800 diluted PE Streptavidin was added and incubated at 4° C. for 50 min. After washing three times with FACS buffer, 150 μL/well of PBS was added to resuspend the cells, and the fluorescence signal was detected on a flow cytometer (BECKMAN COULTER cytoFLEX). The binding activity was fitted using a four-parameter model, and the IC₅₀ value of the blocking activity of each antibody was calculated.

[7] = biological target: T3, human CTLA-4 on the cell surface; assay: flow cytometry, CHO-hCTLA-4 cells, batch FACS#3

EC50 [1] [nM]	EC50 [2] [nM]	IC50 [3] [nM]	IC50 [4] [nM]	IC50 [5] [nM]	IC50 [6] [nM]	EC50 [7] [nM]	Binder
3.44	8.92	5.4	8.69	113	0.077		HC010-F22 (trispecific antibody, human IgG4 S228P, kappa, light: bevacizumab VL-kappa; also called H010-F22) heavy: EVQLVESGGGLVQPGGSLRLSCAASGYTFTNYGMNWVRQAPGKGLEWVGWINTYTGEPTYAADFKRRFTFSLDTSKSTAYLQMNSLRAEDTAVYYCAKYPHYYGSSHWYFDVWGQGTLVTVSSASTKGPSVFPLAPCSRSTSESTAALGCLVKDYFPEPVTVSWNSGALTSGVHTFPAVLQSSGLYSLSSVVTVPSSSLGTKTYTCNVDHKPSNTKVDKRV[human IgG4 Fc with S228P (EU numbers) not spelt out]AGGGGSGGGGSGGGGSGGGGSEVQLLESGGGLVQPGGSLRLSCAASGSIFSINHMAWYRQAPGKQRELVAGVNSRGTTNYVDSVKGRFTISRDNSKNTLYLQMNSLRAEDTAVYYCRALGGAVAAWGQGTLVTVSSGGGGSGGGGSGGGGSGGGGSEVQLVESGGGLVQPGGSLRLSCAASGFTFSSYGMSWVRQAPGKCLEWVSTISGGGRDTYYPDSVKGRFTISRDNSKNTLYLQMNSLRAEDTAVYYCARQNGITWFADWGQGTLVTVSSGGGGSGGGGSGGGGSGGGGSDIQMTQSPSSLSASVGDRVTITCRASESVDNYGISFMNWYQQKPGKAPKLLIYAASNQGSGVPSRFSGSGSGTDFTLTISSLQPEDFATYYCQQSKEVPWTFGCGTKVEIK light: DIQMTQSPSSLSASVGDRVTITCSASQDISNYLNWYQQKPGKAPKVLIYFTSSLHSGVPSRFSGSGSGTDFTLTISSLQPEDFATYYCQQYSTVPWTFGQGTKVEIKRTVAAPSVFIFPPSDEQLKSGTASVVCLLNNFYPREAKVQWKVDNALQSGNSQESVTEQDSKDSTYSLSSTLTLSKADYEKHKVYACEVTHQGLSSPVTKSFNRGEC
7.91	6.5	5.87	15.6	36.7	0.309	6.5	HC010-F24 (trispecific antibody, human IgG4 S228P, kappa, light: bevacizumab VL-kappa; also called H010-F24) heavy: EVQLVESGGGLVQPGGSLRLSCAASGYTFTNYGMNWVRQAPGKGLEWVGWINTYTGEPTYAADFKRRFTFSLDTSKSTAYLQMNSLRAEDTAVYYCAKYPHYYGSSHWYFDVWGQGTLVTVSSASTKGPSVFPLAPCSRSTSESTAALGCLVKDYFPEPVTVSWNSGALTSGVHTFPAVLQSSGLYSLSSVVTVPSSSLGTKTYTCNVDHKPSNTKVDKRV[human IgG4 Fc with S228P (EU numbers) not spelt out]AGGGGSGGGGSGGGGSGGGGSEVQLVESGGGLVQPGGSLRLSCAASGFTFSSYGMSWVRQAPGKCLEWVSTISGGGRDTYYPDSVKGRFTISRDNSKNTLYLQMNSLRAEDTAVYYCARQNGITWFADWGQGTLVTVSSGGGGSGGGGSGGGGSGGGGSDIQMTQSPSSLSASVGDRVTITCRASESVDNYGISFMNWYQQKPGKAPKLLIYAASNQGSGVPSRFSGSGSGTDFTLTISSLQPEDFATYYCQQSKEVPWTFGCGTKVEIKGGGGSGGGGSGGGGSGGGGSEVQLLESGGGLVQPGGSLRLSCAASGSIFSINHMAWYRQAPGKQRELVAGVNSRGTTNYVDSVKGRFTISRDNSKNTLYLQMNSLRAEDTAVYYCRALGGAVAAWGQGTLVTVSS light: DIQMTQSPSSLSASVGDRVTITCSASQDISNYLNWYQQKPGKAPKVLIYFTSSLHSGVPSRFSGSGSGTDFTLTISSLQPEDFATYYCQQYSTVPWTFGQGTKVEIKRTVAAPSVFIFPPSDEQLKSGTASVVCLLNNFYPREAKVQWKVDNALQSGNSQESVTEQDSKDSTYSLSSTLTLSKADYEKHKVYACEVTHQGLSSPVTKSFNRGEC
